The source of these data is a collection of fitness landscapes (doi:10.1126/science.1257360).

This is one part of the list.

B1: PhoQ; a variant is named by its letters at X, in order, P23837 (parent)
chain: MKKLLRLFFPLSLRVRFLLATAAVVLVLSLAYGMVALIGYSVSFDKTTFRLLRGESNLFYTLAKWENNKLHVELPENIDKQSPTMTLIYDENGQLLWAQRDVPWLMKMIQPDWLKSNGFHEIEADVNDTSLLLSGDHSIQQQLQEVREDDDDAEMTHSVAVNVYPATSRMPKLTIVVVDTIPVELKSSYMVWSWFIYVLSANLLLVIPLLWVAAWWSLRPIEALAKEVRELEEHNRELLNPATTRELTSLVRNLNRLLKSERERYDKYRTTLTDLTHSLKTPLXXLQXXLRSLRSEKMSVSDAEPVMLEQISRISQQIGYYLHRASMRGGTLLSRELHPVAPLLDNLTSALNKVYQRKGVNISLDISPEISFVGEQNDFVEVMGNVLDNACKYCLEFVEISARQTDEHLYIVVEDDGPGIPLSKREVIFDRGQRVDTLRPGQGVGLAVAREITEQYEGKIVAGESMLGGARMEVIFGRQHSAPKDE

Variants of B1 are the subject of this test. In words: enrichment ratio after two sorts for PhoP signalling (ratio (wild type AVST 3.29)); higher = more functional. The following applies: with PhoP (E. coli).
EVKL: the enrichment ratio was at most 0.25.
To PDCT belongs at most 0.25.
Then SQIR, with at most 0.25.
Take RLTG: the enrichment ratio is at most 0.25.
Then SSDM, with at most 0.25; and KAQY, with at most 0.25; and LIFK, with at most 0.25.
To AICQ belongs 3.77; to QMTW, at most 0.25; to RKPR, at most 0.25.
Turning to SFRC, the enrichment ratio is at most 0.25.
Then WLWV, with at most 0.25; and MRQW, with at most 0.25; and WPSH, with at most 0.25.
In the case of ITDN, the enrichment ratio is at most 0.25.
To ADDV belongs at most 0.25; to FLCH, at most 0.25; to NGQV, at most 0.25.
NESH: the enrichment ratio is at most 0.25.
Then GDMR, with at most 0.25; and DYLR, with at most 0.25.
Then YGKV, with at most 0.25.
To NRVQ belongs at most 0.25; to YAEP, at most 0.25; to IVIP, at most 0.25.
On to WPVN, for which the enrichment ratio was at most 0.25.
For HIMR, the enrichment ratio is at most 0.25.
As for GPPI, the enrichment ratio is at most 0.25.
Then DINS, with at most 0.25; and FKNE, with at most 0.25.
For PNHS, the enrichment ratio was at most 0.25.
FMDY: the enrichment ratio is at most 0.25.
For the variant VQVC, the enrichment ratio was at most 0.25.
In the case of IKWA, the enrichment ratio was at most 0.25.
With LSHR, the enrichment ratio was at most 0.25.
With FHKT, the enrichment ratio was at most 0.25.
Then QVPV, with at most 0.25; and QFLI, with at most 0.25.
Then ECSH, with at most 0.25; and HECC, with 7.31; and ECDA, with at most 0.25.
Turning to YEIR, the enrichment ratio was at most 0.25.
Then MLVM, with at most 0.25; and PHHD, with at most 0.25; and IDDP, with at most 0.25.
Regarding VPYF, the enrichment ratio is at most 0.25.
In the case of VLFE, the enrichment ratio is at most 0.25.
As to TQDN, the enrichment ratio is at most 0.25.
To CSFN belongs at most 0.25; to FWWT, at most 0.25.
Then INNE, with at most 0.25; and AYPD, with at most 0.25.
On to HAFA, for which the enrichment ratio is at most 0.25.
Then HLNP, with at most 0.25; and IACV, with 0.419.
With HWQL, the enrichment ratio was at most 0.25.
Regarding DAGR, the enrichment ratio was at most 0.25.
Turning to HLQL, the enrichment ratio is at most 0.25.
Then SHWC, with at most 0.25.
TVKS: the enrichment ratio was at most 0.25.
Then ATYL, with at most 0.25; and AAKA, with at most 0.25.
Take FNYY: the enrichment ratio was at most 0.25.
To TMQY belongs 0.38; to TCES, at most 0.25.
Turning to PDHR, the enrichment ratio is at most 0.25.
For the variant GFDK, the enrichment ratio is at most 0.25.
To HEPF belongs at most 0.25.
Regarding REIV, the enrichment ratio was at most 0.25.
To FTSN belongs at most 0.25; to THPE, at most 0.25.
In the case of ELFK, the enrichment ratio is at most 0.25.
Consider SGTL, for which the enrichment ratio worked out at 7.51.
Take WMPN: the enrichment ratio is at most 0.25.
For MKKH, the enrichment ratio is at most 0.25.
To SSKI belongs at most 0.25; to WLAY, at most 0.25; to VHGW, at most 0.25.
To CRFL belongs at most 0.25; to PSNF, at most 0.25; to RTIG, at most 0.25.
Then QHLW, with at most 0.25.
Regarding MIYF, the enrichment ratio is 24.3.
Take QVQG: the enrichment ratio is at most 0.25.
To LLIM belongs at most 0.25.
As to KRGL, the enrichment ratio is at most 0.25.
Regarding APYD, the enrichment ratio was at most 0.25.
For THKQ, the enrichment ratio was at most 0.25.
For the variant TFEY, the enrichment ratio is at most 0.25.
To VRVC belongs at most 0.25; to NRCH, at most 0.25; to LFRF, at most 0.25.
Regarding HNDY, the enrichment ratio is at most 0.25.
To FNPR belongs at most 0.25; to MWCI, at most 0.25.
As to GHSM, the enrichment ratio is at most 0.25.
As to DPCR, the enrichment ratio is at most 0.25.
Consider RLNA, for which the enrichment ratio was at most 0.25.
To PMER belongs at most 0.25; to MIAK, at most 0.25.
Consider QGGM, for which the enrichment ratio was 4.35.
Then MNSI, with 5.63; and QRKL, with at most 0.25.
For the variant TQCW, the enrichment ratio is 0.964.
To YMGR belongs at most 0.25; to WPIW, at most 0.25.
To KEIE belongs at most 0.25; to IYIV, at most 0.25.
To KFPC belongs at most 0.25; to VNPL, at most 0.25.
For the variant VKMF, the enrichment ratio was at most 0.25.
As to RYGQ, the enrichment ratio is at most 0.25.
To ESAC belongs at most 0.25.
As for NKWP, the enrichment ratio is at most 0.25.
On to GEVV, for which the enrichment ratio was 17.2.
Then HPQA, with at most 0.25; and FFND, with at most 0.25; and FKIH, with at most 0.25.
Then KCYT, with at most 0.25; and YQFW, with at most 0.25.
Then WRLE, with at most 0.25.
For the variant PRYF, the enrichment ratio is at most 0.25.
In the case of KSTQ, the enrichment ratio was at most 0.25.
To NSRH belongs at most 0.25.
For the variant GRYR, the enrichment ratio is at most 0.25.
With SIPI, the enrichment ratio came out at 8.91.
Then MHCQ, with at most 0.25.
PQGK: the enrichment ratio was at most 0.25.
In the case of HWRF, the enrichment ratio was at most 0.25.
For AGFK, the enrichment ratio is at most 0.25.
Then WRHR, with at most 0.25; and INHF, with at most 0.25.
In the case of PQWI, the enrichment ratio was at most 0.25.
GKWM: the enrichment ratio was at most 0.25.
Consider PCFP, for which the enrichment ratio is at most 0.25.
To ALNH belongs at most 0.25; to REET, at most 0.25.
To EYWC belongs at most 0.25; to GWHR, at most 0.25; to SRWT, at most 0.25.
With MKMW, the enrichment ratio is at most 0.25.
Then FRSN, with at most 0.25; and YWNA, with at most 0.25.
For the variant LHHS, the enrichment ratio is at most 0.25.
FNPM: the enrichment ratio is at most 0.25.
For the variant QMCI, the enrichment ratio is at most 0.25.
Regarding YMWD, the enrichment ratio is at most 0.25.
In the case of NMRK, the enrichment ratio was at most 0.25.
As for FDDW, the enrichment ratio was at most 0.25.
To HKGV belongs at most 0.25; to NAPC, at most 0.25.
Consider QDIE, for which the enrichment ratio was at most 0.25.
For the variant WCRT, the enrichment ratio was at most 0.25.
